Measured values taken from PubChem BioAssay AID1347428 (National Center for Advancing Translational Sciences (NCATS), 2020).
About 290 (0.32%) of roughly 91,000 compounds were called active. Inconclusive means that the source gave no clear call. Such entries were picked first, then a sample of the others. Calls come from the whole dose curve; as a rule, active = well fitted inhibition curve with a large enough effect; inconclusive = small, poorly fitted or top-dose-only effect; inactive = no such curve, though single readings can be large or run the other way. Potencies beside an inconclusive call are fits to weak or partial responses and may not hold up.

What follows are compounds tested against Single-stranded DNA cytosine deaminase (Homo sapiens) (UniProt Q9GZX7) (assay: Primary qHTS assay for inhibitors of Activation Induced Cytidine Deaminase (AID): AID signal). Conditions: AID deamination FRET fluorescence, UDG-coupled, 4 h; activity change, negative = inhibition: at 115 µM (top of the series).
Chain of UniProt Q9GZX7 (Q9GZX7 whole entry, looked up): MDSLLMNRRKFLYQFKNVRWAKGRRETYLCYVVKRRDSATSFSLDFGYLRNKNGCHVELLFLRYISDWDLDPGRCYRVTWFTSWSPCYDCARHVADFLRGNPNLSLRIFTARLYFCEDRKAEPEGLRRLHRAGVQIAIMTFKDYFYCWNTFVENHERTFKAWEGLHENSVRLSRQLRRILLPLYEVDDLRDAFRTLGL
From the text: Assay Provider (PI) Patricia Gearhart Ph.D.
National Institute on Aging
National Institute of Health (NIH), Bethesda, MD
Assay Provider (PI) Rahul Kohli Ph.D.
Perelman School of Medicine
University of Pennsylvania, Philadelphia, PA
Activation-Induced Deaminase (AID) is a cytosine deaminase which converts cytosine into uracil within stretches of ssDNA. The presence of uracil in DNA initiates a cascade of mutagenic DNA repair to introduce point mutations and DNA double strand breaks. Specific targeting of AID to the immunoglobulin heavy chain loci (Igh) promotes mutagenesis in the antibody variable region for somatic hypermutation (SHM) or switch regions leading to class switch recombination (CSR). However, AID also plays a role in accumulating unnecessary mutations across the genome. Mis-targeting of AID results in the initiation of tumor development and leads to greater drug resistance among cancer cells when continually expressed. To identify an AID inhibitor, a small molecule library will be screened in collaboration with NCATS core facility at NIH. To confirm biological function, inhibitors will be examined in an in vitro murine B-cell activation assay and subsequent secondary validation screens. Top molecules will be further screened to identify inhibitory efficacy against a wild type primary splenocytes assay. Using these approaches, we hope to identify a small molecule with great efficacy and low toxicity for use as a molecular probe to further characterize AID's intricacies, or even as a therapeutic.
A FRET based analysis of cytosine deamination, was developed to identify potential inhibitors of AID catalytic activity. This screen has two signal output, Read 1 evaluates the AID inhibition response. The second readout (Read 2) evaluates UDG response and is uses as a counterscreen to exclude false positive inhibitors. Inhibition in AID and inactivity in the UDG signal is the desired outcome for this assay.
SEQUENCE No. (e.g., 1, 2, 3, etc.); […] (e.g., Cells, Incubation, Reagent, etc.); VALUE; DESCRIPTION
1a; Reagent; 3 uL; [4/3x] 1 uM AID/2.67 U/mL UDG
1b; Reagent; 3 uL; 2 U/mL UDG
1c; Reagent; 3 uL; 1 uM AID
2a; Compound; 46 nL; Follow-up plates (0.64 uM - 10 mM)
2b; Control; 46 nL; ATA ([…] - 10 mM)
3; Time; 10 min; incubation at room temperature
5; Time; 4 hr; incubation at room temperature
6; Reagent; 4 uL; [2x] 250 mM NaOH
7; Time; 15 sec; centrifuge at 1000 rpm
8; Time; 30 min; incubation at room temperature
9a; Detection; fluorescence (Read 1: AID); EnVision (PerkinElmer) plate reader, 540 excitation and 590 emission filters
9b; Detection; fluorescence (Read 2: UDG); EnVision (PerkinElmer) plate reader, 560 excitation and 665 emission filters
NOTES (numbers refer to sequence above)
1a; Reagents were dispensed in a medium-binding black solid-bottom Greiner plates (789176F) using a BioRptr liquid dispenser. Dispense 3 uL of [4/3x] 1 uM AID (provided by Kohli lab) and [4/3x] 2 U/mL UDG (NEB M0280L) into columns 1, 2, 5 to 48.
1b; Dispense 3 uL of [4/3x] 2 U/mL UDG into column 3.
1c; Dispense 3 uL of [4/3x] 1 uM AID into column 4.
2a; Compound (7-points [uM] (0.64; 3.2; 16; 80; 400; 2,000; 10,000; 20,000) double pin-transferred (Dip Factor = 2) using the Kalypsys (Wako USA) pintool equipped with a 1536 pinhead for a final concentration range of 7.32 nM - 114 uM.
2b; 10 mM Aurintricarboxylic Acid (Sigma A1895) (ATA, 8-point, n = 2, 1:2.5 dilution in column 2) double pin-transferred (Dip Factor = 2) using the Kalypsys (Wako USA) pintool equipped with a 1536 pinhead for a [final] range of 186 nM - 114 uM.
3; Room temperature incubation.
4; Dispense 1 uL of substrate mixture from the Kohli lab [4x] […] DJC20 and [4x] 250 nM DJC23 into columns 1 to 48 .
5; Room temperature incubation.
6; Dispense 4 uL of substrate mixture [2x] 250 mM NaOH into columns 1 to 48.
7; Centrifugation step to remove bubbles.
8; Room temperature incubation
9a; Fluorescence signal (column label AID) was read using the EnVision plate reader. […]
% is set by controls: 0 for no effect and ±100 for the full control effect; potency is the fitted concentration of half-maximal effect; tags give direction and shape of the fitted curve.
Note: nearly all actives have a fitted effect of over 25% in size.

Row | SMILES | Potency | activity change, negative = inhibition
1 | O=C(c1ccco1)N1N=C(c2ccc(Br)cc2)CC1c1ccc2nccnc2c1 (stereo unspecified) | inconclusive: 56.2 µM [inhibitor, partial curve, poor fit] | 
2 | COC(=O)c1ccc(Cl)cc1NC(=O)N1CC2CCCN2c2ccccc21 (stereo unspecified) | inconclusive: 89.1 µM [inhibitor, single point] | 
3 | CCOc1ccc(Nc2oc(-c3ccc(COc4ccc(OC)cc4)o3)nc2C#N)cc1 |  | inactive: 4.26%
4 | COC(=O)c1cc(OC(=O)Cc2ccc(Cl)cc2)cc(C(=O)OC)c1 |  | inactive: 0.7%
5 | Cc1ccc(C)c(NC(=O)CSc2nccn2-c2cccc(C)c2C)c1 | inconclusive: 56.2 µM [inhibitor, partial curve, poor fit] | 
6 | Cc1c(-c2ccccc2)oc2c(C(=O)OCC(=O)Nc3ccc(F)cc3F)cccc2c1=O |  | inactive: 1.01%
7 | COc1cc(/C=C(/C#N)C(=O)Nc2ccccc2C(F)(F)F)cc(Br)c1OC | inconclusive: 89.1 µM [inhibitor, single point] | 
8 | Cc1nn(-c2nc(-c3ccccc3)cc(C(F)(F)F)n2)c(C)c1Cl | inconclusive: 31.6 µM [inhibitor, partial curve] | 
9 | CC(C)(C)OC(=O)N1CCC(c2c(C(=O)NCc3cccs3)cnn2-c2cccc(F)c2)CC1 | inconclusive: 50.1 µM [inhibitor, partial curve] | 
10 | O=C(c1ccc(F)cc1)N1CCc2c([nH]c3ccccc23)C1c1ccc(Cl)cc1 (stereo unspecified) | inconclusive: 31.6 µM [inhibitor, full curve] | 
11 | COc1ccc(OC)c(NC(=O)c2oc(=O)c3ccccc3c2-c2ccccc2)c1 | inconclusive: 89.1 µM [inhibitor, single point] | 
12 | COc1ccc(CC(=O)N2CCc3cc(OC)c(OC)cc3C2COc2ccc(F)cc2)cc1 (stereo unspecified) | inconclusive: 100 µM [inhibitor, partial curve, poor fit] | 
13 | Cc1cccc(C(=O)NNC(=S)NC(=O)c2ccc(C(C)(C)C)cc2)c1 |  | inactive: -19.7%
14 | COc1cccc(Cn2nc(SC)c(S(=O)(=O)c3ccccc3)c2N(C(C)=O)C(C)=O)c1 |  | inactive: -14.3%
15 | CCOc1ccc(C(=O)N(Cc2ccc(C(C)C)cc2)Cc2ccco2)cc1 | inconclusive: 44.7 µM [inhibitor, partial curve, poor fit] | 
16 | Cc1ccc(-c2noc(-c3cn(CC(=O)NCc4cccs4)c4nc(C)ccc4c3=O)n2)cc1 | inconclusive: 28.2 µM [inhibitor, partial curve, poor fit] | 
17 | CC(=O)c1ccc(N2CCN(S(=O)(=O)c3cc4[nH]c(=O)c(=O)[nH]c4cc3C)CC2)cc1 | inconclusive: 100 µM [inhibitor, single point] | 
18 | CCOC(=O)CSc1nc(-c2ccc(OCC)cc2)cc(C(F)(F)F)c1C#N |  | inactive: -7.24%
19 | O=S(=O)(c1cccc(Cl)c1)c1nnn2c1nc(NCc1ccc3c(c1)OCO3)c1sccc12 | inconclusive: 14.1 µM [inhibitor, full curve, poor fit] | 
20 | CC(Nc1ccc(N)cc1Cl)c1ccccc1 (stereo unspecified) |  | inactive: 1.26%
21 | CC(=O)NCCNC(=O)CCCn1c(=O)[nH]c2ccsc2c1=O |  | inactive: 6.7%

Row | SMILES | Potency | activity change, negative = inhibition
22 | O=CC1=Cc2c(ccc3ccccc23)OC1 |  | inactive: 24.8%
23 | Cc1ccc(-n2c(SCc3ccccc3F)nc3[nH]ncc3c2=O)cc1Cl | inconclusive: 35.5 µM [inhibitor, partial curve, poor fit] | 
24 | Cc1ccc(CN(C)CC(=O)Nc2ccc(C(F)(F)F)cc2)cc1 | inconclusive: 50.1 µM [inhibitor, partial curve, poor fit] | 
25 | CCCCN(C)CC(O)Cn1cc(/C=C/C(=O)c2ccc(Br)cc2)c2ccccc21 (stereo unspecified) | inconclusive: 50.1 µM [inhibitor, partial curve, poor fit] | 
26 | CC(C)N1CCC(Nc2nc(-c3cccs3)nc3ccccc23)CC1 | inconclusive: 44.7 µM [inhibitor, partial curve, poor fit] | 
27 | OC(COc1ccccc1)CN1CCN(c2nccs2)CC1 (stereo unspecified) |  | inactive: -10.4%
28 | Cc1ccc(-n2nc3c(=O)n(C(C)C(=O)NCc4ccc(OC(C)C)cc4)nc(C)c3c2C)cc1 (stereo unspecified) | inconclusive: 14.1 µM [inhibitor, partial curve, poor fit] | 
29 | CCn1c(=O)c2cc(C(=O)NCc3cc(OC)ccc3OC)sc2c2ccccc21 | inconclusive: 39.8 µM [inhibitor, partial curve, poor fit] | 
30 | Cc1cccc(Cn2c(-c3ccccc3)nc3ccccc32)c1 | inconclusive: 35.5 µM [inhibitor, full curve] | 
31 | O=C(CC1N=C2c3ccccc3N=C(SCc3ccc(F)cc3)N2C1=O)NCCc1ccccc1 (stereo unspecified) | inconclusive: 28.2 µM [inhibitor, full curve, poor fit] | 
32 | COc1ccc2[nH]c3c(c2c1)CCN(C(=O)CCC1CCCC1)C3c1ccc(F)cc1 (stereo unspecified) | inconclusive: 20 µM [inhibitor, full curve, poor fit] | 
33 | O=S(=O)(c1ccc(Cl)cc1)c1nc(-c2cccs2)oc1N1CCCCC1 | inconclusive: 22.4 µM [inhibitor, single point] | 
34 | O=C(Nc1ccc(F)cc1)Nc1csc2c1CCCC2 | inconclusive: 11.2 µM [inhibitor, partial curve, poor fit] | 
35 | O=C(c1ccc2c(Cl)c3c(nc2c1)CCCC3)N1CCN(c2ccc(Cl)cc2)CC1 |  | inactive: -5.42%
36 | CCc1ccccc1Nc1nn2c(=O)c3ccc(C(=O)NCCC4=CCCCC4)cc3nc2s1 | inconclusive: 28.2 µM [inhibitor, partial curve, poor fit] | 
37 | COc1ccc2[nH]cc(CCNC(=O)Nc3ccccc3)c2c1 |  | inactive: 7.4%
38 | Cc1cccc(N2CCN(C(=O)c3ccc4nc(N5CCC(C)CC5)sc4c3)CC2)c1C | inconclusive: 50.1 µM [inhibitor, partial curve, poor fit] | 
39 | Cc1cccc(C)c1NC(=O)Cn1c(=O)n(Cc2ccc(C(=O)NCc3ccco3)cc2)c(=O)c2sccc21 | inconclusive: 28.2 µM [inhibitor, single point] | 
40 | CCCCn1nc(C(=O)Nc2cccc(C(=O)NC3CC3)c2)c2ccccc2c1=O |  | inactive: 0.862%
41 | CCOC(=O)c1ccc(CN(Cc2ccc(C)cc2)S(=O)(=O)c2ccc(F)c(C(=O)Nc3ccc(C)c(F)c3)c2)cc1 | inconclusive: 20 µM [inhibitor, full curve, poor fit] | 
42 | Cc1ccc(S(=O)(=O)NC2(C(F)(F)F)NC(=O)N(c3ccc(F)cc3)C2=O)cc1 (stereo unspecified) | inconclusive: 100 µM [inhibitor, single point] | 

Row | SMILES | Potency | activity change, negative = inhibition
43 | CC1CCCCC1NC(=O)c1cc2c(Cl)nc3ccccc3c2s1 (stereo unspecified) |  | inactive: -2.07%
44 | COc1ccc(C(=O)Nc2ccc(NC(=O)c3cccs3)cc2)cc1OC | active: 63.1 µM | 
45 | Cc1ccc(NC(=O)N2CC3CCCN3c3ccccc32)cc1C (stereo unspecified) | inconclusive: 17.8 µM [inhibitor, partial curve, poor fit] | 
46 | CN(C)c1ccc(CN(Cc2ccco2)C(=O)COc2ccc(F)cc2)cc1 | inconclusive: 50.1 µM [inhibitor, partial curve, poor fit] | 
47 | COc1cc(/C=C(\C#N)C(=O)c2ccccc2)ccc1OCc1ccccc1 | inconclusive: 56.2 µM [inhibitor, partial curve, poor fit] | 
48 | CCOc1ccc(NC(=O)c2oc3ccccc3c2NC(=O)C2CCCCC2)cc1 | inconclusive: 100 µM [inhibitor, single point] | 
49 | Cc1ccc(C)c(Cn2c(=O)n(CC3CCC(C(=O)N4CCOCC4)CC3)c(=O)c3sccc32)c1 (stereo unspecified) | inconclusive: 79.4 µM [inhibitor, partial curve, poor fit] | 
50 | CC(NC(=O)Cn1c(=O)c2c(ncn2C)n(C)c1=O)c1ccc(Cl)c(Cl)c1 (stereo unspecified) |  | inactive: -10%
51 | CC(=O)N1CCc2c(sc3c2c(=O)n(-c2cccc(Cl)c2C)c(=O)n3Cc2ccccc2C)C1 | inconclusive: 56.2 µM [inhibitor, partial curve, poor fit] | 
52 | COc1ccc(CN(Cc2ccco2)C(=O)COc2ccc(Cl)cc2C)cc1 | inconclusive: 44.7 µM [inhibitor, partial curve, poor fit] | 
53 | Cc1ccc(C)c(N2CCN(C(=O)c3ccc(-c4nc(COc5ccccc5)c(C)o4)cc3)CC2)c1 | inconclusive: 35.5 µM [inhibitor, single point] | 
54 | Cc1cccc2c1N(Cc1ccccc1OC(C)C)C(=O)C2=O | inconclusive: 50.1 µM [inhibitor, partial curve, poor fit] | 
55 | COc1ccc(NC(=O)Cn2cc(S(=O)(=O)N3CCC(C)CC3)c3ccccc3c2=O)cc1Cl | inconclusive: 11.2 µM [inhibitor, full curve, poor fit] | 
56 | Cc1ccccc1Cn1nnc2c(=O)[nH]c(C3CCCN(C(=O)c4ccc(C(C)(C)C)cc4)C3)nc21 (stereo unspecified) | inconclusive: 44.7 µM [inhibitor, partial curve, poor fit] | 
57 | COc1ccc(OC)c(CCNC(=O)c2cnn(-c3ccccc3)c2-n2cccc2)c1 | inconclusive: 70.8 µM [inhibitor, single point] | 
58 | CC(=O)N1CCCc2cc(S(=O)(=O)N3CCC(C(=O)N(C)C4CCCCC4)CC3)ccc21 | inconclusive: 25.1 µM [inhibitor, partial curve, poor fit] | 
59 | CN(CC(=O)NC1CCCCNC1=O)Cc1c(F)cccc1Cl (stereo unspecified) |  | inactive: 0.434%
60 | COc1ccccc1Cc1nc2ccccc2nc1SCC(=O)N1CCCCC1 | inconclusive: 31.6 µM [inhibitor, partial curve] | 
61 | CSc1nn(CC(=O)Nc2ccc(C)cc2C)c(N)c1S(=O)(=O)c1ccc(Cl)cc1 | inconclusive: 22.4 µM [inhibitor, full curve] | 
